Measurements: the supplement of paper PMC3334620
The full ranking holds about 33,000 sequences; the median of “E-score (-0.5 to 0.5)” is about -0.011, and the highest 2% start at about 0.28. This is one part of the list.

target: T1, Gcr1 (UniProt P07261); assay: PBM E-score (8-mer binding enrichment) (E-score (-0.5 to 0.5)); higher = stronger / more preferred TF binding; most listed sequences are background and not binding sites; settings: protein concentration: 100 nM; construct: GST-full length
T1 sequence: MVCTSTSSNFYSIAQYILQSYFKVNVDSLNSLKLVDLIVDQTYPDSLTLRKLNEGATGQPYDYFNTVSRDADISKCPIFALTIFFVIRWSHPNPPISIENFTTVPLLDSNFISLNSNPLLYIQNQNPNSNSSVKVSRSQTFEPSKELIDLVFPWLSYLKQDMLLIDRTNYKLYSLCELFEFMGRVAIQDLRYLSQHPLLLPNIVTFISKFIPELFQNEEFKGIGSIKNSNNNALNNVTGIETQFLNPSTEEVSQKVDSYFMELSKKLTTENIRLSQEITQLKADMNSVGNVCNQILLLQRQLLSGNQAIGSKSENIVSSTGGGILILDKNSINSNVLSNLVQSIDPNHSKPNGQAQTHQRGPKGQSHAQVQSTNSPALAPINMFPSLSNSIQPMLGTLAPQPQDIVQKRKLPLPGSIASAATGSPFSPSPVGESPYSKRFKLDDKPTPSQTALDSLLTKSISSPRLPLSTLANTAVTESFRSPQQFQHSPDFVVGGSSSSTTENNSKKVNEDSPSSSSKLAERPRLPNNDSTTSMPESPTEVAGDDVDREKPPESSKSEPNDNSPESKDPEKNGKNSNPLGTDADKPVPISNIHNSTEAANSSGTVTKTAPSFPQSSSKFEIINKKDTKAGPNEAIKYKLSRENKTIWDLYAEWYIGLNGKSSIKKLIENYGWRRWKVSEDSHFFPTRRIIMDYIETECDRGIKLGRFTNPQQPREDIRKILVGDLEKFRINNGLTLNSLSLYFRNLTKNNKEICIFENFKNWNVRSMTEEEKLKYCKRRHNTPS
How it was run: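 Universal all-10-mer Agilent arrays, double-stranded by primer extension on fresh or once-stripped slides, were probed with about 100-200 nM GST-tagged yeast transcription factors made by PURExpress. Fluorescent anti-GST detected bound protein, and masliner normalised the scans. E-scores from the Universal PBM Analysis Suite were given to each ungapped eight-base word pooled with its reverse complement.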

Sequence	PBM E-score
AATATTTG	0.149
AGCGTCCA	0.437
CTTCCTGA	0.179
CAACTTCG	0.107
ATCCACAT	0.223
AGGGGAGG	0.0595
AAACAGTG	-0.0349
CGCGGTGC	-0.116
AGACTCCG	-0.00535
ACGCCAGA	-0.0144
CAAGCTAA	-0.177
ACCCGACA	0.0455
CCTATATA	0.18
CGATTGAC	0.131
ATACGGGA	0.112
CTGCTAGA	-0.0641
CAGACCCA	0.0446
CGTAAAGA	-0.0217
CGGTTGAC	-0.0681
AGATTCTG	0.137
CATATCAG	0.0958
GATTGCGA	-0.0977
AATACTGG	0.369
CCCAGCAC	-0.0444
GGGTACCC	0.0484

Sequence	PBM E-score
CAAAGCCA	-0.104
CATACATC	0.0601
CCCGGCCG	-0.191
GCGTCCTA	0.43
ATCGAGTC	-0.0169
CTGCTGTC	-0.144
AACAGATA	0.00876
ACCTATAA	0.0515
CCCGCTAA	0.0209
CAGTGGGG	-0.00851
GAGGAAAC	-0.104
ACCAGGCC	-0.14
TAAATCGA	0.0142
GCGGTGCC	0.183
GATGCCTA	0.202
CACTAGTA	0.0388
GACTTACA	0.075
ATTAAGAG	0.0762
ACCAGCCC	0.114
AACCGTCC	-0.0266
ACCTTAAC	-0.0375
AGTTTCGC	0.0103
GGTGTATA	-0.28
GATGCCAC	0.342
GACTTTCC	-0.177

Sequence	PBM E-score
AGACGATG	0.189
CATGTAGA	0.0481
ATCTGCAC	0.0229
GCTGGATA	0.115
CCGAAGCA	-0.082
CAACATTG	-0.0426
AGCGCGGG	0.119
ATCCGACA	-0.019
CACCACAC	-0.0549
CGTGACAG	0.0136
GACTACTA	-0.0363
GAGACATC	0.0483
CATGCGGG	-0.0543
ATGGCTAC	0.124
CAAGCGTC	0.0379
AGGCGGGA	0.0309
CAGGTACG	-0.123
CGCAATCA	-0.0907
AAGAAAAT	0.304
CTATAAGC	-0.0389
CAGTGAAC	-0.0275
GTCCAATA	0.205
GAAGGGCC	-0.248
GAGACGCA	0.113
GCTGCGTA	0.286

Sequence	PBM E-score
CAGGTGTA	-0.0818
GCGCGGAA	0.014
GACGTAAA	-0.0595
GCCTGCGC	-0.156
ACACCGGA	0.0649
GATAAGAC	0.0907
GTAACCAA	0.00968
ACTTTCAA	0.139
ACGCGGCT	0.129
AGCTACAT	-0.0377
CGAAAATC	-0.0439
TATCGTCA	0.0934
ACTTCGTG	0.0522
CCATTCTA	0.118
AGTACCTG	0.108
CTTCGGGA	0.0898
CCGCGTGA	0.201
TCAAGCAA	-0.0274
AGCCGACG	-0.0123
CATTGCCA	-0.169
CCACTCCA	0.137
CGAGATCA	0.0628
GATAAGTA	0.103
CCCGTCCA	-0.0559
AGACCTCG	-0.0204

Sequence	PBM E-score
ACCTGTAC	0.0266
ATTCCAGG	0.097
AACCCCAA	0.00228
AAGCGATT	0.0501
CCATAGTC	-0.0493
GAATGGTC	-0.197
ACAATGGT	-0.271
CCAGGGTC	-0.00981
AGGCTGTC	-0.11
TACGGCAA	0.0989
CCTGACAA	-0.0463
CGAACGAC	-0.134
GATCCGCA	0.0939
CCCGCATC	0.198
TCTCGCAA	-0.00232
TCTGATCA	-0.0577
GAGGGCTA	-0.259
GAGCATCA	-0.0695
AGTAAGCA	-0.21
CAACCTTC	-0.0142
GCTTTTCC	-0.238
CTATGCGC	-0.0813
AGCTCCTA	-0.0934
GGTGCTGA	0.335
AAAAATAG	0.175

Sequence	PBM E-score
AATGGTAC	0.138
ACATCCAC	0.133
AGCCGTCC	-0.162
AAAGTACA	0.0394
ACTTTGAT	-0.123
GAGTGTTA	-0.102
CGACGCGA	-0.0131
GGCATCCC	0.4
GGCTCAGA	-0.0689
ACCGGATG	0.349
AGGATGAT	0.105
GGCACTAA	0.158
ACGGTGCT	0.178
CGGCAAGA	-0.131
CCGGGTCG	-0.0758
GTCGTAGA	-0.0298
AGCCCCCT	-0.149
CCACGCCA	-0.0641
GCTGGTAC	-0.0354
ACGCGGAC	-0.0778
CTTGTAGC	0.195
AGCCCACT	0.165
ACCCGATA	-0.0855
CGGCGCGA	0.027
CGTGGTGA	-0.09

Sequence	PBM E-score
CCACACAA	0.191
ACTAGCAA	-0.00147
CATCCAGA	0.268
ATCTTGCG	0.0481
ATGCTCAA	-0.0746
CACGTTTC	-0.0686
ATCACTGG	0.137
GGATGTCA	0.233
CTCTGCTA	-0.0408
CCGTGAGA	-0.184
ACGCAGTA	-0.138
CCTACCAC	-0.0755
ATAGCGGG	0.156
CATCATAG	0.00201
CAGTCGCG	-0.104
GGACACAA	-0.042
CACGGAAC	0.0756
AGAAAGGC	0.0556
CGTATAGA	0.0615
TCTAGCAA	-0.0854
CGTCCTTC	-0.0255
GCATCTAA	0.303
